Reference: PubChem BioAssay AID1963576 (National Center for Advancing Translational Sciences (NCATS), 2024)
Out of some 46,000 compounds screened, about 60 (0.1%) were called active. Roughly 3% stayed inconclusive and do not appear here. Calls follow the shape of the dose curve; as a rule, active = well fitted inhibition curve with a large enough effect; inconclusive = small, poorly fitted or top-dose-only effect; inactive = no such curve, though single readings can be large or run the other way. The list shows a part of the results.

Assay: Primary qHTS assay for Inhibitors of ovarian cancer metastasis using an organotypic tumor microenvironment (TME) model. Also: nearly all actives have a fitted effect of over 65% in size.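 As to activity change, negative = inhibition: plate controls were DMSO wells for no effect and tomatine positive control wells for full effect.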
Conditions: SKOV3ip1-GFP adhesion/invasion on 3D omental model, fluorescence; series mostly up to 45.8 µM; activity change, negative = inhibition: at the top concentration
In short: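 qHTS, 4-pt dose (0.36-46 umol/L); SKOV3ip1-GFP, 1,200 cells/well, no FBS; primary omental fibroblast/mesothelial co-culture 48 h pre-grown; 2 h RT + 16 h 37 C; PBS wash, 4% PFA; GFP count 488/509 nm.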

outcome, inactive:
CC(=O)Nc1ccc(S(=O)(=O)NC2=NCN(C(C)C)CN2)cc1, Cc1cc(F)ccc1NC(=O)C(C(C)C)N1Cc2ccccc2C1=O (configuration not stated), CCC(=O)N1CCc2cc(Br)cc(S(=O)(=O)CCC(=O)NCCc3ccc(C)cc3)c21, O=c1c(-c2cc(-c3ccc(Cl)cc3)nc3c2COc2ccccc2-3)coc2ccccc12, Cc1sc2ncn(CC(=O)N3CCN(c4ccccc4F)CC3)c(=O)c2c1S(=O)(=O)N1CCN(c2ncccn2)CC1, CN(CC(=O)NCc1ccccc1Cl)S(=O)(=O)c1ccc2c(c1)c(=O)n(C)c(=O)n2C, CC(=O)c1c(C)oc2ccc(N(C(=O)c3ccncc3)S(=O)(=O)c3ccc(C)cc3C)cc12, COc1ccc(-c2ccc(=O)n(CC(=O)NCCc3ccccc3)n2)cc1, Cc1cccc(NC(=O)Cn2c(=O)n(CCC(=O)N3CCc4ccccc4C3)c(=O)c3ccccc32)c1, CCOC(=O)c1cccc(NC(=O)c2cc3cc4ccc(C)cc4nc3s2)c1, CCOc1ccc(NC(=O)NCCN2CCN(c3ccccc3F)CC2)cc1, Nc1c(C(=O)Nc2ccc(Br)cc2)sc2nc(-c3ccncc3)ccc12, O=C(CNC(=O)c1ccc(Cl)cc1)OCc1cc(=O)n2nc(C3CCCCC3)sc2n1, CCn1c(=O)c2sccc2n2c(CCC(=O)Nc3ccc(OC)c(Cl)c3)nnc12, COc1cccc2sc(N3CCN(C(=O)CCS(=O)(=O)c4ccc(F)cc4)CC3)nc12, Cc1ccc(C)c(Cn2c3ccccc3c3cnn(CC(=O)NC(C)c4ccccc4)c(=O)c32)c1 (configuration not stated), CS(=O)(=O)N1CCc2cc(C(=O)Nc3cccc(F)c3)ccc21, CSc1ccc(C2c3c(oc4ccccc4c3=O)C(=O)N2CCCN2CCOCC2)cc1 (configuration not stated), CCc1ccc(NC(=O)CSc2nc3ncccc3[nH]2)cc1, CC1CCN(S(=O)(=O)c2cc(C(=O)Nc3ccc(Br)cc3F)n(C)c2)CC1, CCOc1ccccc1CNS(=O)(=O)c1csc(C(N)=O)c1, Cc1cccc(NC(=O)Cn2c(C(F)(F)F)nc3ccccc32)c1C, CCOc1cc2c(cc1OCC)C(c1c(F)cccc1Cl)CC(=O)N2 (configuration not stated)

Activity change, negative = inhibition, inactive:
CCc1ccccc1OCCSc1nc(-c2cccs2)nc2cc(=O)[nH]n12 1.36%, COc1ccc(CNC(=O)c2ccc3c(c2)N(Cc2ccccc2)C(=O)c2ccccc2S3=O)cc1 (configuration not stated) -2.83%, COc1ccccc1NC(=O)c1nnn(-c2ccc(F)cc2)c1C 0.0939%, Cc1ccc(Cl)cc1N1CCN(C(=O)Cc2c(C(=O)O)c(C)cn2C)CC1 -2.04%, COc1cn(CC(=O)Nc2cc(C)ccc2C)c(CN2CCCCC2)cc1=O -8.54%, O=[N+]([O-])c1cc(-c2nc(-c3ccncc3)no2)ccc1NCc1ccccc1 -1.64%, O=C(c1cn(CCOc2ccc(Cl)cc2)c2ccccc12)C1CCCCC1 3.4%, O=C(Nc1ccc2oc(-c3cccc(Cl)c3Cl)nc2c1)c1cccc(Br)c1 -27.6%, CCOC(=O)c1cccc(NC(=O)N2CCC(CN3CCCCCC3)CC2)c1 0.972%, CNC(=O)C1CCC(Cn2c(=O)c3sccc3n(CC(=O)Nc3cc(F)ccc3F)c2=O)CC1 (configuration not stated) 0.893%, CC(=O)Nc1cccc(NC(=O)CSc2cn(CC(=O)N3CCCCCC3)c3ccccc23)c1 -6.51%, CCN(CC)S(=O)(=O)c1ccc(C(=O)NCCSc2c(-c3ccc(OC)cc3)[nH]c3ccccc23)cc1 -14.7%, COc1ccccc1NC(=O)C1=C(C)Nc2nc(SCc3ccccc3Cl)nn2C1c1ccncc1 (configuration not stated) 1.68%, O=C(CN1C(=O)C2(SCC(=O)N2c2ccc(F)cc2)c2ccccc21)NCCc1ccccc1 (configuration not stated) -9.92%, O=C(O)c1cccnc1 -8.77%, COc1ccc(NC(=O)CCSc2nc(-c3ccco3)cc(C(F)(F)F)n2)cc1OC -2.77%, CCc1ccc(OCCSc2nc(-c3cccc(C)c3)nc3cc(=O)[nH]n23)cc1 5.73%, CCOc1ccc(C(=O)c2cn(CC(=O)Nc3cc(OC)ccc3OC)c3cc(OC)c(OC)cc3c2=O)cc1 2.77%, CCOc1cc(CNCCSc2nnnn2-c2ccccc2)ccc1OC 1.09%, CCOC(=O)C1CCN(C(c2ccc(F)cc2)c2sc3nc(-c4ccco4)nn3c2O)CC1 (configuration not stated) -1.26%, Cc1cc(C)c(NC(=O)C(C)n2nnc3sc(-c4ccccc4)cc3c2=O)c(C)c1 (configuration not stated) 2.12%, Cc1cc(C)cc(Nc2cc(C(=O)NCc3ccccc3)c3ccccc3n2)c1 34.3%, Cc1cc(C)cc(Nc2nc3c(S(=O)(=O)c4cccc(Cl)c4)nnn3c3ccsc23)c1 -12.2%, CCCCc1oc2ccccc2c1C(=O)c1cc(I)c(OCCN(CC)CC)c(I)c1 -10.6%, CCOC(=O)c1cc(-c2ccc(F)cc2)n(CCC(=O)NC2CCCCC2)c1C -22.1%, CSc1ccc(CCNC(=O)c2cc3c(-c4ccccc4F)nn(C)c3s2)cc1 42%, O=S(=O)(NCc1ccc(Cl)cc1)c1ccc(N2CCCCS2(=O)=O)cc1 -11.4%, CCOC(=O)c1cc2c(=O)n3ccccc3nc2n(C)c1=NC(=O)c1cc2ccccc2o1 4.4%, CC(=O)Nc1ccc(C(=O)CSc2nnc3ccc4ccccc4n23)cc1 -9.61%, Cc1cc(=O)n2nc(N3CCC(C(=O)Nc4ccc(Br)cc4F)CC3)sc2n1 -5.74%, Cc1ccc2c(c1)c1c(c(=O)n(-c3ccccc3C)c(=O)n1CC(=O)NCC1CCCO1)n2C (configuration not stated) 10.7%, COc1cccc(NC(=O)c2ccc(-c3nc(COc4ccc(C)cc4)c(C)o3)cc2)c1 -15.2%, OC[C@H]1OC(O)C[C@@H](O)[C@H]1O (some centres not stated) 2.84%, Cc1ccc(C)c(NC(=O)CCCN2C(=O)C(c3ccccc3)Oc3cccnc32)c1 (configuration not stated) 25.4%, COc1cc2c(=O)n(CCC(=O)NCC3CCCO3)c(=O)n(CC(=O)Nc3ccc(F)cc3)c2cc1OC (configuration not stated) 9.17%, COc1ccc(S(=O)(=O)N(CC(=O)Nc2cccnc2)c2ccc(C)cc2)cc1OC 3.11%, CCc1ccc(-n2c(CCC(=O)O)ccc2-c2ccc(F)cc2)cc1 6.6%, CCOc1ccccc1NC(=O)COc1ccc(S(=O)(=O)NC2CCCCC2)cc1 0.614%, CCn1c(CN2CCCCC2)nc2cc(NC(=O)c3ccc([N+](=O)[O-])cc3)ccc21 -5.55%, O=C(Nc1ccc(F)c(F)c1)C1CCCN1S(=O)(=O)c1cccc2nsnc12 (configuration not stated) 8.02%, CCOc1ccccc1CNC(=O)c1cc(-c2ccc(C)c(C)c2)nc2ccccc12 -0.159%, CCc1ccc(CNC(=O)CCn2c(=O)c3cccn3c3ccc(F)cc32)cc1 -10.1%, Cc1ccc(-n2nnc(-c3nsc(NC(=O)c4ccc(C)c(C)c4)n3)c2C)cc1 -10.3%, CCc1ccc(C2NC(=O)c3[nH]nc(-c4cccc(OC)c4)c32)cc1 (configuration not stated) -3.08%, CC(C)Oc1ccc(CNC(=O)C2CCN(c3nc4ccccc4n(C)c3=O)CC2)cc1 -2.46%, Cc1oc2ncn(C)c(=O)c2c1C(=O)NCCCN(Cc1ccccc1)C(C)C 9.55%, Cc1ccc(NC(=O)Cn2nnc(C(=O)NCCc3ccccc3)c2N)cc1C -9.5%, Cc1ccc(C(=O)Nc2nc(-c3ccccc3)ns2)cc1 -7.13%, Cc1ccsc1CN(C(=O)c1oc2ccccc2c1C)C1CCS(=O)(=O)C1 (configuration not stated) -6.96%, Cc1ccc(CNC(=O)C(=O)NCC(c2cccnc2)N2CCN(c3ccccc3F)CC2)cc1 (configuration not stated) 16.1%, CCCS(=O)(=O)N1CCC(n2c(C(F)(F)F)nc3cccnc32)CC1 -10.7%, CN1CCN(c2ccc3nc(-c4c(N)c5c(F)cccc5[nH]c4=O)[nH]c3c2)CC1 11.8%, COc1ccccc1CC(=O)Nc1ccc2nc(N3CCC(C)CC3)cc(C)c2c1 12.3%, COCCNC(=O)Cn1ncc2c(C)n(Cc3ccc(C)cc3)c(C)c2c1=O 8.87%, CCCOc1ccccc1C1Oc2nc(SC)nnc2-c2ccccc2N1C(C)=O (configuration not stated) 3.2%, CCCNC(=O)CN1CCN(c2ncc(NC(=O)c3ccc(Cl)cc3)cc2C(=O)O)CC1 1.6%, CCOC(=O)c1ccc(-c2ccc(/C=C(\C#N)C(=O)Nc3ccc(C)cc3OC)o2)cc1 -19.7%, CC(C)(C)C(=O)OC1=CN(Cc2ccccc2)S(=O)(=O)c2ccccc21 -5.33%, Cc1ccc(CN(Cc2ccco2)C(=O)c2oc3ccc(C)cc3c2C)cc1 -11.5%, Cc1cccc(-n2ncc3c(N4CCCCCC4)ncnc32)c1 8.16%, Cc1ccc(C)c(CNC(=O)c2cnc3sc(N4CCCC4)nn3c2=O)c1 2.39%, CCOc1ccc(C(=O)c2cn(Cc3ccc(F)cc3)c3ccc(F)cc3c2=O)cc1 -19.7%, Cc1cccc(N(C)C(=S)Oc2ccc3ccccc3c2)c1 -9.47%, O=S(=O)(c1ccccc1)c1nc(-c2ccc(F)cc2)oc1N1CCCCCC1 0.268%, CCOc1ccc(/C=C/C(=O)Nc2sc3c(c2C(=O)OC)CCC3)cc1 3.76%, COc1cccc(NC(=O)c2c(C(=O)Nc3ccccc3)sc3nc(C)cc(=O)n23)c1 5.76%, Cc1ccc(-c2cc(C(=O)N3CCN(c4ccccc4)CC3)c3ccccc3n2)cc1C -20.6%, COC(=O)c1cc(NC(=O)CCc2c(C)nc3cc(-c4ccccc4)nn3c2C)cc(C(=O)OC)c1 20.6%, Cc1sc2c(c1C)c(=O)n(-c1ccc(Cl)cc1)c(=O)n2Cc1c(F)cccc1Cl 2.69%, CCOC(=O)c1c(S(=O)(=O)N2CCC(C(=O)N3CCN(c4cc(C)ccc4C)CC3)CC2)c(C)n(C)c1C -11.5%, COc1cc(C2C(C(=O)Nc3ccccc3)=C(C)Nc3nc(SCc4ccccc4F)nn32)cc(OC)c1OC (configuration not stated) 16.7%, O=C(NCCc1csc2nc(-c3ccc(F)cc3)nn12)c1ccco1 19%, CCc1ccccc1NC(=O)c1nc(-c2ccncc2)no1 -3.72%, COc1ccc(C)cc1NC(=O)Cn1cc(S(=O)(=O)Cc2ccccc2Cl)c2ccccc21 0.397%
